The list shows a part of the results. Sequences were assembled here from the parent chain. Values near 0.05 are background.
B1: TEV protease; numbered along this chain (parent)
chain: MGESLFKGPRDYNPISSSICHLTNESDGHTTSLYGIGFGPFIITNKHLFRRNNGTLVVQSLHGVFKVKDTTTLQQHLVDGRDMIIIRMPKDFPPFPQKLKFREPQREERICLVTTNFQTKSMSSMVSDTSCTFPSGDGIFWKHWIQTKDGQCGSPLVSTRDGFIVGIHSASNFTNTNNYFTSVPKNFMELLTNQEAQQWVSGWRLNADSVLWGGHKVFMVKPEEPFQPVKEATQL

Variants of: B1
Assay: raw area under fraction-flipped curve 0-4 h after induction (AUC4h, not background-subtracted), DNA-recorder readout of cleavage of the substrate (dimensionless); higher = more cleavage of the substrate by the protease variant
Conditions: temperature: 34 °C; time window: 0-4 h after rhamnose induction
Protocol: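 In vivo DNA recorder in E. coli TOP10(DE3) ΔrhaA at 34 °C. Each TEVp single-site mutant (parent TEVp 0) is paired with a single-site variant of the 7-mer TEVs (canonical ENLYFQ|S). The substrate sits between flexible linkers in a Bxb1-sfGFP-TEVs-SsrA fusion, so cleavage stabilises Bxb1 and speeds flipping of a recombination array, read by NGS. The value is the raw area under the fraction-flipped curve over 0-4 h after rhamnose induction (AUC4h), with ≥20 reads per time point. It is not background-subtracted; inactive controls average about 0.047.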
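Note: Bxb1 expression induced with 0.2% (w/v) L-rhamnose at OD600 near 0.5, cultures sampled hourly, flipped fraction per protease–substrate barcode pair counted by paired-end Illumina sequencing.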

Row | Variant | area with substrate EALYFQS | area with substrate ECLYFQS | area with substrate EPLYFQS | area with substrate ESLYFQS | area with substrate EVLYFQS | area with substrate EFLYFQS | area with substrate EILYFQS | area with substrate EKLYFQS | area with substrate ELLYFQS | area with substrate EMLYFQS | area with substrate EQLYFQS | area with substrate EWLYFQS | area with substrate EELYFQS | area with substrate EGLYFQS | area with substrate ERLYFQS | area with substrate ETLYFQS | area with substrate EYLYFQS | area with substrate EHLYFQS | area with substrate EDLYFQS
1 | MGESLFKGPRDYNPISSSICHLTNESDGHTTSLYGIGFGPFIITNKHLFRRNNGTLVVQSLHGVFKVKDTTTLQQHLVDGRDMIIIRMPKDFPPFPQKLKFREPQREERICLVTTNFQTKSMSSPVSDTSCTFPSGDGIFWKHWIQTKDGQCGSPLVSTRDGFIVGIHSASNFTNTNNYFTSVPKNFMELLTNQEAQQWVSGWRLNADSVLWGGHKVFMVKPEEPFQPVKEATQL [M125P] | 0.152 | 0.11 | 0.123 | 0.0993 | 0.0635 | – | – | – | – | – | – | – | – | – | – | – | – | – | –
2 | MGESLFKGPRDYNPISSSICHLTNESDGHTTSLYGIGFGPFIITNKHLFRRNNGTLVVQSLHGVFKVKDTTTLQQHLVDGRDMIIIRMPKDFPPFPQKLKFREPQREERICLVTTNFQTKSMSSMVQDTSCTFPSGDGIFWKHWIQTKDGQCGSPLVSTRDGFIVGIHSASNFTNTNNYFTSVPKNFMELLTNQEAQQWVSGWRLNADSVLWGGHKVFMVKPEEPFQPVKEATQL [S127Q] | 0.113 | 0.108 | 0.12 | 0.106 | 0.0938 | 0.0726 | 0.077 | 0.0735 | 0.0937 | 0.129 | 0.153 | 0.0962 | – | – | – | – | – | – | –
3 | MGESLFKGPRDYNPISSSICHLTNESDGHTTSLYGIGFGPFIITNKHLFRRNNGTLVVQSLHGVFKVKDTTTLQQHLVDGRDMIIIRMPKDFPPFPQKLKFREPQREERICLVTTNFQTKSMSSMVSDNSCTFPSGDGIFWKHWIQTKDGQCGSPLVSTRDGFIVGIHSASNFTNTNNYFTSVPKNFMELLTNQEAQQWVSGWRLNADSVLWGGHKVFMVKPEEPFQPVKEATQL [T129N] | 0.135 | – | 0.105 | 0.104 | – | – | 0.0724 | 0.123 | – | – | – | 0.0928 | 0.121 | 0.0918 | 0.109 | 0.11 | 0.112 | – | –
4 | MGESLFKGPRDYNPISSSICHLTNESDGHTTSLYGIGFGPFIITNKHLFRRNNGTLVVQSLHGVFKVKDTTTLQQHLVDGRDMIIIRMPKDFPPFPQKLKFREPQREERICLVTTNFQTKSMSSMVSDTKCTFPSGDGIFWKHWIQTKDGQCGSPLVSTRDGFIVGIHSASNFTNTNNYFTSVPKNFMELLTNQEAQQWVSGWRLNADSVLWGGHKVFMVKPEEPFQPVKEATQL [S130K] | 0.11 | – | 0.109 | 0.0875 | 0.0823 | 0.088 | 0.0784 | 0.0946 | – | – | – | – | 0.121 | 0.0792 | – | – | 0.0777 | – | –
5 | MGESLFKGPRDYNPISSSICHLTNESDGHTTSLYGIGFGPFIITNKHLFRRNNGTLVVQSLHGVFKVKDTTTLQQHLVDGRDMIIIRMPKDFPPFPQKLKFREPQREERICLVTTNFQTKSMSSMVSDTMCTFPSGDGIFWKHWIQTKDGQCGSPLVSTRDGFIVGIHSASNFTNTNNYFTSVPKNFMELLTNQEAQQWVSGWRLNADSVLWGGHKVFMVKPEEPFQPVKEATQL [S130M] | 0.0928 | – | – | 0.083 | 0.0847 | – | 0.0945 | – | 0.0841 | 0.131 | – | – | – | 0.0791 | – | 0.101 | – | 0.0978 | –
6 | MGESLFKGPRDYNPISSSICHLTNESDGHTTSLYGIGFGPFIITNKHLFRRNNGTLVVQSLHGVFKVKDTTTLQQHLVDGRDMIIIRMPKDFPPFPQKLKFREPQREERICLVTTNFQTKSMSSMVSDTSVTFPSGDGIFWKHWIQTKDGQCGSPLVSTRDGFIVGIHSASNFTNTNNYFTSVPKNFMELLTNQEAQQWVSGWRLNADSVLWGGHKVFMVKPEEPFQPVKEATQL [C131V] | 0.139 | – | – | 0.111 | 0.0997 | – | – | – | – | – | – | – | 0.162 | – | – | – | – | – | –
7 | MGESLFKGPRDYNPISSSICHLTNESDGHTTSLYGIGFGPFIITNKHLFRRNNGTLVVQSLHGVFKVKDTTTLQQHLVDGRDMIIIRMPKDFPPFPQKLKFREPQREERICLVTTNFQTKSMSSMVSDTSCTAPSGDGIFWKHWIQTKDGQCGSPLVSTRDGFIVGIHSASNFTNTNNYFTSVPKNFMELLTNQEAQQWVSGWRLNADSVLWGGHKVFMVKPEEPFQPVKEATQL [F133A] | 0.124 | 0.11 | 0.104 | 0.0693 | 0.107 | 0.091 | 0.126 | 0.0687 | 0.0965 | – | – | 0.0922 | – | – | 0.11 | – | – | – | –
8 | MGESLFKGPRDYNPISSSICHLTNESDGHTTSLYGIGFGPFIITNKHLFRRNNGTLVVQSLHGVFKVKDTTTLQQHLVDGRDMIIIRMPKDFPPFPQKLKFREPQREERICLVTTNFQTKSMSSMVSDTSCTHPSGDGIFWKHWIQTKDGQCGSPLVSTRDGFIVGIHSASNFTNTNNYFTSVPKNFMELLTNQEAQQWVSGWRLNADSVLWGGHKVFMVKPEEPFQPVKEATQL [F133H] | 0.143 | – | – | 0.112 | 0.112 | 0.0838 | 0.0992 | 0.125 | 0.102 | – | – | 0.0958 | 0.135 | – | – | 0.106 | – | – | 0.118
9 | MGESLFKGPRDYNPISSSICHLTNESDGHTTSLYGIGFGPFIITNKHLFRRNNGTLVVQSLHGVFKVKDTTTLQQHLVDGRDMIIIRMPKDFPPFPQKLKFREPQREERICLVTTNFQTKSMSSMVSDTSCTRPSGDGIFWKHWIQTKDGQCGSPLVSTRDGFIVGIHSASNFTNTNNYFTSVPKNFMELLTNQEAQQWVSGWRLNADSVLWGGHKVFMVKPEEPFQPVKEATQL [F133R] | 0.105 | – | 0.157 | 0.124 | 0.165 | – | 0.097 | 0.198 | – | 0.13 | 0.163 | 0.146 | 0.151 | – | 0.123 | 0.0836 | – | 0.148 | 0.147
10 | MGESLFKGPRDYNPISSSICHLTNESDGHTTSLYGIGFGPFIITNKHLFRRNNGTLVVQSLHGVFKVKDTTTLQQHLVDGRDMIIIRMPKDFPPFPQKLKFREPQREERICLVTTNFQTKSMSSMVSDTSCTFNSGDGIFWKHWIQTKDGQCGSPLVSTRDGFIVGIHSASNFTNTNNYFTSVPKNFMELLTNQEAQQWVSGWRLNADSVLWGGHKVFMVKPEEPFQPVKEATQL [P134N] | 0.0907 | – | 0.102 | – | – | – | 0.0747 | 0.0854 | 0.0739 | 0.0805 | 0.0914 | 0.08 | – | – | 0.0849 | – | – | 0.0991 | 0.125

Source: the supplement of paper PMC12217912
